Lines with a small IC50 respond at low doses; fits outside the tested doses are given as limits. AUC, from the same fit, is the share of area under the viability curve across the 256-fold dose range; the more sensitive the line, the further below 1. For part of these data: An inferred top dose was calculated from the reported fits.
Experiments:
Assay in all cases: Viability of human cancer cell lines after 72 h of drug (GDSC screen)
[1] = compound: C=CC(=O)Nc1cc(NC(=O)c2ccc(C)c(NC(=O)c3ccno3)c2)cc(C(F)(F)F)c1 [QL-XI-92]; conditions: top dose 10.24 µM; top dose inferred
Method: (§1)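 Human cancer cell lines in 384-well plates, medium with 10% serum, drug for 72 h over a 256-fold dose range (nine 2-fold or five 4-fold steps up to the top dose). Adherent lines were fixed and stained with the nucleic acid dye Syto60, suspension lines read with resazurin; signal relative to control wells, capped at 0 and 100%. One two-parameter sigmoid per drug and line, fitted in a mixed model over all curves with the slope shared within a line.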

[2] = compound: CCC1=C[C@@H]2CN(C1)Cc1c([nH]c3ccccc13)[C@@](C(=O)OC)(c1cc3c(cc1OC)N(C)[C@H]1[C@@](O)(C(=O)OC)[C@H](OC(C)=O)[C@]4(CC)C=CCN5CC[C@]31[C@@H]54)C2 [Vinorelbine]; conditions: top dose 0.064 µM; top dose inferred
Method: as §1

[3] = compound: CNCc1ccc(-c2[nH]c3cc(F)cc4c3c2CCNC4=O)cc1 [AG-014699]; conditions: top dose 5 µM; top dose inferred
Method: as §1

[4] = compound: COc1cc2nccc(Oc3ccc(NC(=O)C4(C(=O)Nc5ccc(F)cc5)CC4)cc3)c2cc1OC [XL-184]; conditions: top dose 5.12 µM; top dose inferred
Method: as §1

[5] = compound: COc1cc2ncnc(Nc3cc(Br)c(O)c(Br)c3)c2cc1OC [WHI-P97]; conditions: top dose 10.24 µM; top dose inferred
Method: as §1

[6] = compound: COc1cc2ncnc(Nc3ccc(F)c(Cl)c3)c2cc1OCCCN1CCOCC1 [Gefitinib]; conditions: top dose 0.5 µM
Method: as §1

[7] = compound: N=C(N)NC(=N)NCCc1ccccc1 [Phenformin]; conditions: top dose 4000 µM; top dose inferred
Method: as §1

[8] = compound: O=c1cc(CN2CCOCC2)occ1OCCCCCSc1ccnc2cc(C(F)(F)F)ccc12 [EHT 1864]; conditions: top dose 10 µM; top dose inferred
Method: as §1

[9] = compound: O=c1cc(N2CCOCC2)oc2c(-c3cccc4c3sc3ccccc34)cccc12 [NU-7441]; conditions: top dose 2 µM; top dose inferred
Method: as §1

Cell Line	AUC [1]	IC50 [1] [µM]	AUC [2]	IC50 [2] [µM]	AUC [3]	IC50 [3] [µM]	AUC [4]	IC50 [4] [µM]	AUC [5]	IC50 [5] [µM]	AUC [6]	IC50 [6] [µM]	AUC [7]	IC50 [7] [µM]	AUC [8]	IC50 [8] [µM]	AUC [9]	IC50 [9] [µM]
PCI-30 (head and neck, adherent)	0.973	> 10.2	0.912	> 0.064	0.945	> 5	0.981	> 5.12	0.978	> 10.2	0.968	> 0.5	0.954	> 4000	0.961	> 10	0.971	> 2
PE/CA-PJ15 (head and neck, adherent)	0.986	> 10.2	0.922	> 0.064	0.976	> 5	0.959	> 5.12	0.862	9.93	0.893	> 0.5	0.815	2430	0.948	> 10	0.92	> 2
PL4 (pancreas, adherent)	0.977	> 10.2	0.823	0.0393	0.986	> 5	0.881	> 5.12	0.982	> 10.2	0.981	> 0.5	0.78	1700	0.987	> 10	0.971	> 2
RCM-1 (large intestine, adherent)	0.983	> 10.2	0.941	> 0.064	0.955	> 5	0.981	> 5.12	0.977	> 10.2	0.958	> 0.5	0.634	636	0.916	> 10	0.975	> 2
RERF-LC-KJ (lung adenocarcinoma, adherent)	0.983	> 10.2	0.621	0.00868	0.969	> 5	0.955	> 5.12	0.983	> 10.2	0.947	> 0.5	0.801	2020	0.98	> 10	0.94	> 2
RERF-LC-MS (lung adenocarcinoma, adherent)	0.985	> 10.2	0.673	0.0123	0.962	> 5	0.859	4.45	0.936	> 10.2	0.987	> 0.5	0.979	> 4000	0.941	> 10	0.987	> 2
RERF-LC-Sq1 (lung squamous cell carcinoma, adherent)	0.951	> 10.2	0.95	> 0.064	0.948	> 5	0.947	> 5.12	0.973	> 10.2	0.82	0.484	0.771	2310	0.85	> 10	0.894	> 2
RF-48 (stomach, adherent)	0.874	> 10.2	0.516	0.00444	0.976	> 5	0.87	> 5.12	0.884	> 10.2	0.95	> 0.5	0.966	> 4000	0.918	> 10	0.98	> 2
RH-41 (rhabdomyosarcoma, adherent)	0.992	> 10.2	0.682	0.0117	0.99	> 5	0.992	> 5.12	0.991	> 10.2	0.987	> 0.5	0.983	> 4000	0.948	> 10	0.93	> 2
RKN (ovary, adherent)	0.969	> 10.2	0.813	0.037	0.977	> 5	0.982	> 5.12	0.931	> 10.2	0.98	> 0.5	0.8	2070	0.982	> 10	0.962	> 2
RO82-W-1 (thyroid, adherent)	0.983	> 10.2	0.957	> 0.064	0.966	> 5	0.963	> 5.12	0.977	> 10.2	0.978	> 0.5	0.953	> 4000	0.93	> 10	0.938	> 2
RPMI-2650 (head and neck, adherent)	0.965	> 10.2	0.662	0.0117	0.941	> 5	0.893	> 5.12	0.964	> 10.2	0.985	> 0.5	0.809	2300	0.943	> 10	0.973	> 2
RPMI-7951 (melanoma, adherent)	0.898	> 10.2	0.646	0.01	0.977	> 5	0.903	> 5.12	0.983	> 10.2	0.985	> 0.5	0.373	113	0.979	> 10	0.942	> 2
RVH-421 (melanoma, adherent)	0.903	> 10.2	0.478	0.00341	0.947	> 5	0.932	> 5.12	0.962	> 10.2	0.972	> 0.5	0.736	1540	0.958	> 10	0.928	> 2
